From the supplement of paper PMC4166925
± gives the standard deviation of the averaged measurements. The full ranking holds about 33,000 sequences; the median of “E-score (dimensionless, -0.5 to 0.5)” is about -0.046, and the highest 2% start at about 0.36. The list shows a part of the results.

Test system: T1, SpTbr T-box DNA-binding domain (GST fusion)
T1 sequence: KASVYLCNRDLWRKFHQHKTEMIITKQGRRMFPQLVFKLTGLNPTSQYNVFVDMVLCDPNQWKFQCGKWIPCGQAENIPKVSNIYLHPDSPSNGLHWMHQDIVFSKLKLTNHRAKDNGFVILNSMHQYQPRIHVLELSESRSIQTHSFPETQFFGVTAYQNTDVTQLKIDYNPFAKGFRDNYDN
Assay: PBM E-score of 8-mer (E-score (dimensionless, -0.5 to 0.5)); Tbr is Tbrain of the sea star Patiria miniata (Pm) or the sea urchin Strongylocentrotus purpuratus (Sp); higher = stronger binding preference; most listed sequences are background and not binding sites
Conditions: the construct has about 5 more residues each side
How it was run: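 Expression of GST-fused Tbr T-box DNA-binding domains, each holding the full T-box plus roughly five flanking residues, was carried out in BL21 E. coli at 20 °C, with purification by glutathione affinity chromatography. Universal Agilent arrays made double-stranded by primer extension were incubated with the protein at 200 nM in PBS (pH 7.5), then scanned and quantified. All ungapped 8-mers were scored from probe intensities, and each received an enrichment E-score from the Universal PBM Analysis Suite, averaged over duplicate arrays.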

Row | Sequence | PBM E-score of 8-mer
1 | CCAACACC | 0.4264 ± 0.0023
2 | AAAGTGTG | 0.441 ± 0.0064
3 | AAAACTCC | -0.156 ± 0.054
4 | ATCTTGCA | -0.167 ± 0.0076
5 | CCGGACAC | 0.0552 ± 0.0014
6 | GAAGCACC | -0.114 ± 0.056
7 | GACTACTC | -0.0344 ± 0.062
8 | CCGTGCAG | -0.0645 ± 0.088
9 | ACGTGTAC | 0.0673 ± 0.011
10 | CTCGCCGA | 0.00928 ± 0.1
11 | AGTATAAT | -0.0592 ± 0.009
12 | ATCGGATC | -0.0422 ± 0.034
13 | AGGCGTTA | 0.434 ± 0.018
14 | CAATCCAA | 0.2149 ± 0.00083
15 | CAAAGATA | -0.0142 ± 0.053
16 | TACTACCA | -0.244 ± 0.0066
17 | CGTCCAGA | -0.14 ± 0.057
18 | GCATATCC | 0.0811 ± 0.1
19 | CGAATTCG | 0.101 ± 0.017
20 | GAACGCGA | 0.186 ± 0.049
21 | AGAGCAGA | -0.202 ± 0.049
22 | ATATGTAC | -0.195 ± 0.0059
23 | CGCGCACC | 0.266 ± 0.033
24 | ACCGTATA | -0.0971 ± 0.063
25 | AGACGGAT | -0.122 ± 0.058

Row | Sequence | PBM E-score of 8-mer
26 | ATAGAAAA | -0.102 ± 0.092
27 | AAGCCGCT | -0.0961 ± 0.043
28 | CAGAGGCA | -0.202 ± 0.029
29 | AGATACTG | -0.164 ± 0.008
30 | ACTCTCAC | 0.285 ± 0.036
31 | CATAATAA | -0.138 ± 0.012
32 | AATTGCGT | -0.129 ± 0.012
33 | CCTGAATA | -0.0462 ± 0.017
34 | CACACAGC | 0.3041 ± 0.00096
35 | AATATTGC | -0.0727 ± 0.02
36 | AATGACGA | 0.0109 ± 0.005
37 | CCTTGTCA | 0.2984 ± 0.0013
38 | AGCGCTCA | 0.18 ± 0.041
39 | AAATGTGA | 0.235 ± 0.053
40 | GATATACA | -0.11 ± 0.057
41 | AGAGTCCG | -0.247 ± 0.017
42 | ACCTTGTC | 0.246 ± 0.036
43 | AGAGTTCC | -0.201 ± 0.047
44 | ACTCCGTG | -0.129 ± 0.043
45 | AAACTGGG | -0.0707 ± 0.0073
46 | CTATGCCC | -0.358 ± 0.019
47 | ATTACGCA | -0.00702 ± 0.012
48 | CGAGGTCC | -0.207 ± 0.017
49 | AAACCTCT | -0.292 ± 0.061
50 | ATTCCATG | 0.0479 ± 0.017

Row | Sequence | PBM E-score of 8-mer
51 | GACCATCC | -0.25 ± 0.017
52 | CCGATAAA | -0.0119 ± 0.097
53 | CACAGACA | 0.103 ± 0.0082
54 | CTCCTAAG | -0.217 ± 0.051
55 | GGGTGATA | 0.253 ± 0.0088
56 | AGGGGCCG | -0.0731 ± 0.021
57 | ATGCATTG | -0.0745 ± 0.048
58 | CGCGATAA | 0.328 ± 0.0095
59 | CAGATGGA | -0.158 ± 0.059
60 | ACTACACA | 0.0428 ± 0.0095
61 | AACAGGTC | 0.107 ± 0.0057
62 | ATGAAAAC | -0.254 ± 0.013
63 | TGACAGAA | -0.0128 ± 0.042
64 | ATGTCTGC | 0.00839 ± 0.0021
65 | AACGACCC | -0.0318 ± 0.0063
66 | GCACTATA | 0.0124 ± 0.00081
67 | TCGCGTCA | 0.29 ± 0.0031
68 | GTCCATTA | -0.262 ± 0.04
69 | CCCGGAGC | -0.183 ± 0.018
70 | CATCTCCG | -0.0139 ± 0.13
71 | CCCACTCC | -0.0138 ± 0.014
72 | AAGCCACA | 0.0226 ± 0.023
73 | ATTCTTCC | -0.0473 ± 0.032
74 | GCACACCA | 0.221 ± 0.03
75 | CCGCCATA | -0.0471 ± 0.036

Row | Sequence | PBM E-score of 8-mer
76 | ACAAGTAC | 0.0482 ± 0.071
77 | CACAGCAC | 0.218 ± 0.028
78 | GGCTACAC | 0.0183 ± 0.004
79 | AATTTTCG | 0.0998 ± 0.027
80 | AGGACAAG | -0.105 ± 0.1
81 | GGATCAAA | -0.0491 ± 0.031
82 | AAAGACGA | -0.0625 ± 0.044
83 | GGATCGCC | -0.191 ± 0.016
84 | GACAGGTA | 0.104 ± 0.0041
85 | AGGGAGAG | -0.0232 ± 0.035
86 | ATGTTTCA | -0.181 ± 0.054
87 | GAAGGGAC | -0.00202 ± 0.015
88 | AAGACCAT | -0.17 ± 0.032
89 | CCGGGACC | -0.187 ± 0.015
90 | CGTATATA | -0.0571 ± 0.062
91 | CTCACAAG | 0.173 ± 0.039
92 | GAGATCAA | -0.113 ± 0.019
93 | AAGCTGAT | -0.176 ± 0.038
94 | CCTATAGA | -0.103 ± 0.0043
95 | CCCCGAAG | -0.174 ± 0.043
96 | AGTTCTCC | -0.062 ± 0.011
97 | CTAAATCC | -0.125 ± 0.04
98 | GCTTGTAA | -0.0483 ± 0.034
99 | ATCCATGG | -0.315 ± 0.004
100 | CGGGATTC | -0.0949 ± 0.03

Row | Sequence | PBM E-score of 8-mer
101 | AACGCTAA | 0.108 ± 0.031
102 | CTTTGGTC | -0.163 ± 0.0098
103 | AGGTAGGC | -0.0842 ± 0.03
104 | AGCACTAA | 0.0592 ± 0.043
105 | CACGTCGA | 0.16 ± 0.051
106 | CATTGAGG | -0.197 ± 0.078
107 | CCTTGGTA | 0.0315 ± 0.045
108 | ATGAAATC | -0.289 ± 0.0011
109 | GGAGTACC | -0.109 ± 0.13
110 | ACACCCGA | 0.41 ± 0.0072
111 | GCTGAACC | -0.192 ± 0.034
112 | AAGATTCC | -0.0742 ± 0.086
113 | CCCCCTAC | -0.0895 ± 0.036
114 | CCAATGAA | -0.176 ± 0.028
115 | CGTGTATC | -0.0584 ± 0.0034
116 | ACCACTGA | -0.0358 ± 0.066
117 | ATATAGTC | -0.0444 ± 0.027
118 | GGAACCGA | -0.0955 ± 0.0058
119 | AGTATATG | -0.0228 ± 0.01
120 | CATTGACA | 0.236 ± 0.066
121 | CCCTCGTA | -0.2057 ± 0.00097
122 | CGCCCGGC | 0.0599 ± 0.078
123 | AGGGCGTG | 0.281 ± 0.01
124 | CCAACGCG | 0.107 ± 0.039
125 | AACGCCAT | 0.199 ± 0.029

Row | Sequence | PBM E-score of 8-mer
126 | ATGACCAT | -0.171 ± 0.015
127 | CACGAAGG | -0.0263 ± 0.044
128 | CTGCATGA | -0.225 ± 0.0059
129 | AACGACGT | -0.0362 ± 0.0024
130 | CCCGGCGA | -0.121 ± 0.072
131 | CCCCTAAC | -0.1309 ± 0.00067
132 | CATCACAG | 0.184 ± 0.0071
133 | GCAAACGA | -0.00505 ± 0.014
134 | ACGCGAGA | 0.219 ± 0.016
135 | CTATCTTC | -0.114 ± 0.011
136 | GAGCAAAC | -0.0726 ± 0.047
137 | GAAGCGGA | 0.0338 ± 0.064
138 | AGGACTAT | -0.234 ± 0.035
139 | GTTCGAAA | -0.108 ± 0.0034
140 | AAGTTTTA | -0.109 ± 0.015
141 | ATAGGTTC | -0.0885 ± 0.014
142 | AACCCCCT | -0.177 ± 0.046
143 | CGTTATCA | 0.223 ± 0.079
144 | CTTATGAA | -0.0887 ± 0.019
145 | TACAGTAA | 0.00315 ± 0.044
146 | ATTACATG | -0.0895 ± 0.061
147 | ATGACGGG | -0.00892 ± 0.0049
148 | CATGGAAG | -0.278 ± 0.023
149 | AAGCAATC | -0.0241 ± 0.019
150 | AAAGTAGC | -0.0267 ± 0.0034

Row | Sequence | PBM E-score of 8-mer
151 | ACTCTGTA | -0.0995 ± 0.052
152 | GAGGTTGC | 0.114 ± 0.063
153 | AGAACTCC | -0.209 ± 0.051
154 | GTGGGGTA | -0.0652 ± 0.013
155 | ACTCGTTG | 0.09144 ± 0.00069
156 | TGTTCGAA | 0.0771 ± 0.019
157 | AACATGAA | 0.0383 ± 0.048
158 | GAAATCGA | -0.0416 ± 0.02
159 | CCCTTCGA | -0.0189 ± 0.0027
160 | AGAATCCT | -0.101 ± 0.021
161 | TAGTGTCA | 0.395 ± 0.032
162 | AGCTTCAA | -0.215 ± 0.026
163 | TCCCGGAA | -0.207 ± 0.042
164 | AAGACAGC | -0.14 ± 0.013
165 | ATTTTAAC | -0.00251 ± 0.09
166 | ATTCACCC | -0.224 ± 0.03
167 | CTCGTTTC | -0.0614 ± 0.019
168 | CGAGGCAC | 0.0764 ± 0.042
169 | CCGTAATA | -0.133 ± 0.02
170 | CGAGAGAA | 0.0858 ± 0.029
171 | GGAATTAC | -0.207 ± 0.056
172 | CGCTCTCA | 0.0769 ± 0.043
